# Test results reported in the supplement of paper PMC8728848.
# This is one part of the list.
# Key:
# Assay in all cases: glycan array binding signal (z-score within array); higher = stronger binding
# Details in all cases: glycan notation: IUPAC condensed, linker removed
# Glc(a1-6)Glc(a1-6)Glc = target: Glc(a1-6)Glc(a1-6)Glc
# Method in brief: (§1)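 Glycan array data were curated from 3228 arrays in the Consortium for Functional Glycomics database and kept only where the protein sequence was available. Glycan names were converted to IUPAC-condensed notation, and columns mapping to the same glycan were averaged. The binding signal is a within-array Z-score, averaged across arrays of the same protein sequence at different concentrations or buffers and across linkers. Negative Z-scores can be read as non-binding.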
# [1] = target: Glc(a1-6)Glc(a1-6)Glc(a1-6)Glc
# Method in brief: as §1
# Glc(b1-4)Glc = target: Glc(b1-4)Glc
# Method in brief: as §1
# Glc(b1-6)Glc = target: Glc(b1-6)Glc
# Method in brief: as §1
# GlcA(b1-3)Gal = target: GlcA(b1-3)Gal
# Method in brief: as §1
# GlcA(b1-3)GlcNAc = target: GlcA(b1-3)GlcNAc
# Method in brief: as §1
# GlcA(b1-6)Gal = target: GlcA(b1-6)Gal
# Method in brief: as §1
# [2] = target: GlcA3S(b1-3)Gal(b1-4)GlcNAc(b1-2)Man
# Method in brief: as §1
# [3] = target: GlcA3S(b1-3)Gal(b1-4)GlcNAc(b1-3)Gal(b1-4)Glc
# Method in brief: as §1
# [4] = target: GlcNAc(a1-3)Gal(b1-4)GlcNAc
# Method in brief: as §1
# [5] = target: GlcNAc(a1-4)Gal(b1-3)GlcNAc
# Method in brief: as §1
# [6] = target: GlcNAc(a1-4)Gal(b1-4)GalNAc
# Method in brief: as §1
# [7] = target: GlcNAc(a1-4)Gal(b1-4)GlcNAc
# Method in brief: as §1
# [8] = target: GlcNAc(a1-4)Gal(b1-4)GlcNAc(b1-3)Gal(b1-4)Glc
# Method in brief: as §1
# [9] = target: GlcNAc(a1-4)Gal(b1-4)GlcNAc(b1-3)Gal(b1-4)GlcNAc
# Method in brief: as §1
# [10] = target: GlcNAc(a1-4)Gal(b1-4)GlcNAc(b1-3)Gal(b1-4)GlcNAc(b1-3)Gal(b1-4)GlcNAc
# Method in brief: as §1
# [11] = target: GlcNAc(a1-4)Gal(b1-4)GlcNAc(b1-3)Gal(b1-4)[Fuc(a1-3)]GlcNAc(b1-3)Gal(b1-4)[Fuc(a1-3)]GlcNAc
# Method in brief: as §1
# [12] = target: GlcNAc(a1-6)Gal(b1-4)GlcNAc
# Method in brief: as §1
# [13] = target: GlcNAc(b1-2)Gal(b1-3)GalNAc
# Method in brief: as §1
# [14] = target: GlcNAc(b1-2)Man(a1-3)[GlcNAc(b1-2)Man(a1-6)]Man(b1-4)GlcNAc(b1-4)GlcNAc
# Method in brief: as §1
# [15] = target: GlcNAc(b1-2)Man(a1-3)[GlcNAc(b1-2)Man(a1-6)]Man(b1-4)GlcNAc(b1-4)[Fuc(a1-6)]GlcNAc
# Method in brief: as §1
# [16] = target: GlcNAc(b1-2)Man(a1-3)[GlcNAc(b1-4)][GlcNAc(b1-2)Man(a1-6)]Man(b1-4)GlcNAc(b1-4)GlcNAc
# Method in brief: as §1
# [17] = target: GlcNAc(b1-2)Man(a1-3)[GlcNAc(b1-4)][GlcNAc(b1-2)Man(a1-6)]Man(b1-4)GlcNAc(b1-4)[Fuc(a1-6)]GlcNAc
# Method in brief: as §1
# [18] = target: GlcNAc(b1-2)[GlcNAc(b1-4)]Man(a1-3)[GlcNAc(b1-2)Man(a1-6)]Man(b1-4)GlcNAc(b1-4)GlcNAc
# Method in brief: as §1
# [19] = target: GlcNAc(b1-2)[GlcNAc(b1-4)]Man(a1-3)[GlcNAc(b1-4)][GlcNAc(b1-2)Man(a1-6)]Man(b1-4)GlcNAc(b1-4)GlcNAc
# Method in brief: as §1
# [20] = target: GlcNAc(b1-2)[GlcNAc(b1-4)]Man(a1-3)[GlcNAc(b1-4)][GlcNAc(b1-2)[GlcNAc(b1-6)]Man(a1-6)]Man(b1-4)GlcNAc(b1-4)GlcNAc
# Method in brief: as §1
# [21] = target: GlcNAc(b1-2)[GlcNAc(b1-4)]Man(a1-3)[GlcNAc(b1-4)][GlcNAc(b1-2)[GlcNAc(b1-6)]Man(a1-6)]Man(b1-4)GlcNAc(b1-4)[Fuc(a1-6)]GlcNAc
# Method in brief: as §1
# [22] = target: GlcNAc(b1-2)[GlcNAc(b1-6)]Man(a1-6)[GlcNAc(b1-2)Man(a1-3)]Man(b1-4)GlcNAc(b1-4)GlcNAc
# Method in brief: as §1
# [23] = target: GlcNAc(b1-2)[GlcNAc(b1-6)]Man(a1-6)[GlcNAc(b1-2)Man(a1-3)]Man(b1-4)GlcNAc(b1-4)[Fuc(a1-6)]GlcNAc
# Method in brief: as §1
# [24] = target: GlcNAc(b1-2)[GlcNAc(b1-6)]Man(a1-6)[GlcNAc(b1-2)Man(a1-3)][GlcNAc(b1-4)]Man(b1-4)GlcNAc(b1-4)GlcNAc
# Method in brief: as §1
# [25] = target: GlcNAc(b1-2)[GlcNAc(b1-6)]Man(a1-6)[GlcNAc(b1-4)][GlcNAc(b1-2)Man(a1-3)]Man(b1-4)GlcNAc(b1-4)GlcNAc
# Method in brief: as §1
# GlcNAc(b1-3)Fuc = target: GlcNAc(b1-3)Fuc
# Method in brief: as §1
# GlcNAc(b1-3)Gal = target: GlcNAc(b1-3)Gal
# Method in brief: as §1
# [26] = target: GlcNAc(b1-3)Gal(b1-3)GalNAc
# Method in brief: as §1
# GlcNAc(b1-3)Gal(b1-4)Glc = target: GlcNAc(b1-3)Gal(b1-4)Glc
# Method in brief: as §1
# [27] = target: GlcNAc(b1-3)Gal(b1-4)GlcNAc
# Method in brief: as §1
# [28] = target: GlcNAc(b1-3)Gal(b1-4)GlcNAc(b1-2)Man(a1-3)[GlcNAc(b1-3)Gal(b1-4)GlcNAc(b1-2)Man(a1-6)]Man(b1-4)GlcNAc(b1-4)GlcNAc
# Method in brief: as §1
binder,measurement,setting,value
PpFlo2 (Pichia pastoris) (protein) MGSSHHHHHHSSGLVPRGSHMDDSGNGDNSDTAYGCDITTNAVDGFDATIYQYNANDLRLIRDPTFMSTGYLGRNVLNKISGVTVPGFNIWNPSSRTATVYGVKNVNYYNMVLELKGYFKADVSGDYKLTLSHIDDSSMLFFGKETAFKCCDAGSIPLNEAPTDYSLFTIKPSNQVNSEVISATQYLEAGKYYPVRIVFVNALERARFDFKLTIPSGAVLDDFQNYIYQFGDLDENSCHE,glycan array binding signal (z-score),Glc(a1-6)Glc(a1-6)Glc,-0.299
same,glycan array binding signal (z-score),[1],-0.303
same,glycan array binding signal (z-score),Glc(b1-4)Glc,-0.296
same,glycan array binding signal (z-score),Glc(b1-6)Glc,-0.3
same,glycan array binding signal (z-score),GlcA(b1-3)Gal,-0.3
same,glycan array binding signal (z-score),GlcA(b1-3)GlcNAc,-0.254
same,glycan array binding signal (z-score),GlcA(b1-6)Gal,-0.297
same,glycan array binding signal (z-score),[2],-0.271
same,glycan array binding signal (z-score),[3],-0.272
same,glycan array binding signal (z-score),[4],2
same,glycan array binding signal (z-score),[5],-0.269
same,glycan array binding signal (z-score),[6],-0.288
same,glycan array binding signal (z-score),[7],-0.258
same,glycan array binding signal (z-score),[8],-0.247
same,glycan array binding signal (z-score),[9],-0.209
same,glycan array binding signal (z-score),[10],-0.203
same,glycan array binding signal (z-score),[11],-0.213
same,glycan array binding signal (z-score),[12],0.182
same,glycan array binding signal (z-score),[13],-0.079
same,glycan array binding signal (z-score),[14],3.88
same,glycan array binding signal (z-score),[15],1.5
same,glycan array binding signal (z-score),[16],1.72
same,glycan array binding signal (z-score),[17],0.447
same,glycan array binding signal (z-score),[18],2.46
same,glycan array binding signal (z-score),[19],1.17
same,glycan array binding signal (z-score),[20],0.675
same,glycan array binding signal (z-score),[21],-0.108
same,glycan array binding signal (z-score),[22],2.81
same,glycan array binding signal (z-score),[23],2.24
same,glycan array binding signal (z-score),[24],2.19
same,glycan array binding signal (z-score),[25],-0.024
same,glycan array binding signal (z-score),GlcNAc(b1-3)Fuc,0.04
same,glycan array binding signal (z-score),GlcNAc(b1-3)Gal,1.09
same,glycan array binding signal (z-score),[26],2.32
same,glycan array binding signal (z-score),GlcNAc(b1-3)Gal(b1-4)Glc,1.83
same,glycan array binding signal (z-score),[27],2.79
same,glycan array binding signal (z-score),[28],4.64
